Measurements taken from a collection of fitness landscapes (doi:10.1016/j.celrep.2020.107928).
Whole data set: some 81,000 sequences, median “one-hybrid fitness for binding NBS DNA” near -0.1, cut for the highest 2% near 0.36. This is one part of the list.

B1: Caulobacter ParB omega fusion; a variant is named by its letters at X, in order, B8GW30 (parent)
chain: MESVVVGEPGMSEGRRGLGRGLSALLGEVDAAPAQAPGEQLGGSREAPIEILQRNPDQPRRTFREEDLEDLSNSIREKGVLQPILVRPSPDTAGEYQIVAGERAWRAAQRAGLKTVPIMVRELDDLAVLEIGIIENVQRADLNVLEEALSYKVLMEKFERTQENIAQTIGKSXSHVANXMRLLXLPDEVQSYLVSGELTAXHARAIAAAADPVALAKQIIEGGLSVRETEALARKAPNLSAGKSKGGRPPRVKDTDTQALESDLSSVLGLDVSIDHRGSTGTLTITYATLEQLDDLCNRLTRGI

Variants of: B1
Assay: one-hybrid fitness for binding NBS DNA (the Noc-binding site; scaled: cognate 1, non-cognate 0); higher = stronger binding
Settings: with NBS DNA site
Outline: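 On M9-minus-histidine containing 0.1 mM IPTG and 5 mM 3-AT, E. coli USO cells with a HIS3 reporter, site 19 bp from the promoter, grew 48 hours at 37°C to select Caulobacter ParB libraries randomised at four specificity codons. Plasmids from before and after were Illumina-sequenced, with three replicate libraries pooled and variants under 10 reads left out. Fitness is the log change in variant-to-wild-type read ratio, rescaled against cognate and non-cognate.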

Row | Variant | one-hybrid fitness for binding NBS DNA
1 | WLDE | ≤ 0.2
2 | PQKA | ≤ 0.2
3 | ASPV | ≤ 0.2
4 | LPWL | ≤ 0.2
5 | LKTN | ≤ 0.2
6 | RCSW | ≤ 0.2
7 | GDPL | ≤ 0.2
8 | ATHI | ≤ 0.2
9 | CDLG | ≤ 0.2
10 | SRFF | ≤ 0.2
11 | QWPF | ≤ 0.2
12 | YVHG | ≤ 0.2
13 | WLCF | ≤ 0.2
14 | ALRV | ≤ 0.2
15 | CLCR | ≤ 0.2
16 | ESCF | ≤ 0.2
17 | QSPF | ≤ 0.2
18 | AHRF | ≤ 0.2
19 | ELCS | ≤ 0.2
20 | KNMG | ≤ 0.2
21 | QKQV | ≤ 0.2
22 | QISC | ≤ 0.2
23 | TASN | ≤ 0.2
24 | WLNG | ≤ 0.2
25 | IVNS | ≤ 0.2

Row | Variant | one-hybrid fitness for binding NBS DNA
26 | DVSN | ≤ 0.2
27 | QWAG | ≤ 0.2
28 | ESST | ≤ 0.2
29 | NSPP | ≤ 0.2
30 | TCQS | ≤ 0.2
31 | RPCF | ≤ 0.2
32 | WGLG | ≤ 0.2
33 | PHKY | ≤ 0.2
34 | SIND | ≤ 0.2
35 | QGMH | ≤ 0.2
36 | QCDY | ≤ 0.2
37 | FMTW | ≤ 0.2
38 | IANG | ≤ 0.2
39 | LHHD | ≤ 0.2
40 | CMAY | ≤ 0.2
41 | AVRE | ≤ 0.2
42 | WRQG | ≤ 0.2
43 | CYLV | ≤ 0.2
44 | PCSW | ≤ 0.2
45 | NNLV | ≤ 0.2
46 | KWPT | ≤ 0.2
47 | KLKG | ≤ 0.2
48 | EHTR | ≤ 0.2
49 | APKM | ≤ 0.2
50 | TEMT | ≤ 0.2

Row | Variant | one-hybrid fitness for binding NBS DNA
51 | PPVD | ≤ 0.2
52 | AMPG | ≤ 0.2
53 | NPVC | ≤ 0.2
54 | RRPQ | ≤ 0.2
55 | VRRM | ≤ 0.2
56 | PDIC | ≤ 0.2
57 | QLGV | ≤ 0.2
58 | VMSR | ≤ 0.2
59 | FSRG | ≤ 0.2
60 | PCPN | ≤ 0.2
61 | STDY | ≤ 0.2
62 | PRPN | ≤ 0.2
63 | VMCN | ≤ 0.2
64 | SPPV | ≤ 0.2
65 | AYIL | ≤ 0.2
66 | RHWY | ≤ 0.2
67 | FDNL | ≤ 0.2
68 | VRQY | ≤ 0.2
69 | VQCY | ≤ 0.2
70 | RELM | ≤ 0.2
71 | RFSF | ≤ 0.2
72 | PVAM | ≤ 0.2
73 | QCVS | 0.381
74 | VVIE | ≤ 0.2
75 | WGDG | ≤ 0.2

Row | Variant | one-hybrid fitness for binding NBS DNA
76 | QIPL | ≤ 0.2
77 | RHKQ | 0.219
78 | IMTM | ≤ 0.2
79 | DGCG | ≤ 0.2
80 | YRYS | ≤ 0.2
81 | FMNI | ≤ 0.2
82 | HRHW | ≤ 0.2
83 | FKYE | ≤ 0.2
84 | KVVS | ≤ 0.2
85 | CVPC | ≤ 0.2
86 | DSVT | ≤ 0.2
87 | HFSL | ≤ 0.2
88 | SMLC | ≤ 0.2
89 | DYKR | ≤ 0.2
90 | HTSM | ≤ 0.2
91 | YIYG | ≤ 0.2
92 | SATM | ≤ 0.2
93 | RYNH | 0.209
94 | EHSS | ≤ 0.2
95 | MPRR | ≤ 0.2
96 | NATV | ≤ 0.2
97 | TVIM | ≤ 0.2
98 | VCKS | ≤ 0.2
99 | TCNV | ≤ 0.2
100 | IWTS | ≤ 0.2

Row | Variant | one-hybrid fitness for binding NBS DNA
101 | VRAW | ≤ 0.2
102 | FHCG | ≤ 0.2
103 | MVCC | ≤ 0.2
104 | KRMH | ≤ 0.2
105 | PKAG | ≤ 0.2
106 | PMDG | ≤ 0.2
107 | GRKV | ≤ 0.2
108 | RAFF | ≤ 0.2
109 | ACRA | ≤ 0.2
110 | VSLC | ≤ 0.2
111 | LACS | ≤ 0.2
112 | EVTM | ≤ 0.2
113 | RVVY | ≤ 0.2
114 | VSVG | ≤ 0.2
115 | HCKD | ≤ 0.2
116 | PAPQ | ≤ 0.2
117 | CCKA | ≤ 0.2
118 | HARM | ≤ 0.2
119 | VRPS | ≤ 0.2
120 | DENT | ≤ 0.2
121 | SIVN | ≤ 0.2
122 | RSMW | ≤ 0.2
123 | QTAH | 0.401
124 | AFDC | ≤ 0.2
125 | AGPT | ≤ 0.2

Row | Variant | one-hybrid fitness for binding NBS DNA
126 | MYQW | ≤ 0.2
127 | CLIG | ≤ 0.2
128 | VNRC | ≤ 0.2
129 | VSCR | ≤ 0.2
130 | DIYR | ≤ 0.2
131 | MCAR | ≤ 0.2
132 | SNGY | ≤ 0.2
133 | RPGL | ≤ 0.2
134 | CGCC | ≤ 0.2
135 | QPGQ | ≤ 0.2
136 | PFVW | ≤ 0.2
137 | QYEG | ≤ 0.2
138 | GNNV | ≤ 0.2
139 | EVQR | ≤ 0.2
140 | DWSP | ≤ 0.2
141 | RESS | ≤ 0.2
142 | KGHV | ≤ 0.2
143 | RKTK | ≤ 0.2
144 | AAGL | ≤ 0.2
145 | MMKR | ≤ 0.2
146 | RWNN | ≤ 0.2
147 | PSTH | ≤ 0.2
148 | KSYR | ≤ 0.2
149 | PVGC | ≤ 0.2
150 | DAIC | ≤ 0.2

Row | Variant | one-hybrid fitness for binding NBS DNA
151 | FYRV | ≤ 0.2
152 | MFAT | ≤ 0.2
153 | TRTK | ≤ 0.2
154 | GVHS | ≤ 0.2
155 | STDN | ≤ 0.2
156 | RQEM | ≤ 0.2
157 | RGWG | ≤ 0.2
158 | VTSM | ≤ 0.2
159 | APRW | ≤ 0.2
160 | RRGP | ≤ 0.2
161 | FYRL | ≤ 0.2
162 | INKG | ≤ 0.2
163 | DMPR | ≤ 0.2
164 | LQVF | ≤ 0.2
165 | FQRG | ≤ 0.2
166 | LEWE | ≤ 0.2
167 | HSRA | ≤ 0.2
168 | VNST | ≤ 0.2
169 | FNTF | ≤ 0.2
170 | RSSF | ≤ 0.2
171 | PSRF | ≤ 0.2
172 | AREV | ≤ 0.2
173 | IASV | ≤ 0.2
174 | RRMR | 0.723
175 | RIMF | ≤ 0.2

Row | Variant | one-hybrid fitness for binding NBS DNA
176 | TADE | ≤ 0.2
177 | SCGG | ≤ 0.2
178 | PMHY | ≤ 0.2
179 | FSHF | ≤ 0.2
180 | DCSL | ≤ 0.2
181 | VNQS | ≤ 0.2
182 | NKRA | ≤ 0.2
183 | IAVM | ≤ 0.2
184 | SDVT | ≤ 0.2
185 | KDMS | ≤ 0.2
186 | QNKW | ≤ 0.2
187 | TISC | ≤ 0.2
188 | VDGL | ≤ 0.2
189 | WMEG | ≤ 0.2
190 | CYHG | ≤ 0.2
191 | HHFS | ≤ 0.2
192 | HLEL | ≤ 0.2
193 | DDLR | ≤ 0.2
194 | AHPL | ≤ 0.2
195 | QEEK | ≤ 0.2
